From the RNAGym collection of RNA variant scans (doi:10.7554/elife.90254)
The source gives no read counts; variants with many changes may rest on few reads.

B1: LINE1-mini (parent)
chain: GGCAGAGCUCAACACAGCGUGGCAAAGUGGCUGUGGCUAGACUGCC

Variants of: B1
Assay: self-cleavage, relative activity (ratio to wild type); higher = more cleavage; in vitro, sequencing; the parent is a self-cleaving ribozyme
Variant G2U C3A A25G has a self-cleavage of 0.12. G2C G27U G35A gave a self-cleavage of 0. G2U A12G U34A G44U showed a self-cleavage of 0. G2U A4G G7U A11G G22U C46A gave a self-cleavage of 0.01. With G2U A4G G5A A14C G22C the self-cleavage was 0.03. In the case of G2U A12U G17U A24G, the self-cleavage is reported as 0.02. Variant G2C G5A A12U G21A G36A C37A U38A has a self-cleavage of 0.11. G2U A4C G29C U38G gave a self-cleavage of 0.06. In the case of G2U A4G A12U G35C C46A, the self-cleavage is reported as 0.09. Work on G2C G7U G33C G40A A41C yielded a self-cleavage of 0.07. Work on G2C U9A A12G yielded a self-cleavage of 0.02. Variant G2C G17C U34G has a self-cleavage of 0.05. Variant G2U A14C A16U C18U A26U has a self-cleavage of 0.01. G2C C15G G29A gave a self-cleavage of 0.04. With G2U C8A G17U C45A the self-cleavage was 0.04. G2U A6C C15U U32C showed a self-cleavage of 0.02. G2C G21U C42A U43A showed a self-cleavage of 0.12. With G2C U20G A24G G33A G36U G40U U43C the self-cleavage was 0.03. G2U C10A A11G G19A C37U C42U U43C showed a self-cleavage of 0.01. G2U A26C G27U gave a self-cleavage of 0.03. For G2U A12C C18G U34C, the self-cleavage was 0. In the case of G2C C15A G17U G22A G33A A41U G44A, the self-cleavage is reported as 0.09. In the case of G2U A39G C46G, the self-cleavage is reported as 0.01. G2U A12U G27C G44U gave a self-cleavage of 0.02. G2U C31A G33U showed a self-cleavage of 0.1. With G2U C3A G5U the self-cleavage was 0.13. Variant G2U A12C G40A has a self-cleavage of 0.01. G2C G33C G40U U43G C46A showed a self-cleavage of 0.02. In the case of G2C U9G C10U G22U G29C, the self-cleavage is reported as 0.01. G2U C8A U38C A39U showed a self-cleavage of 0.06. In the case of G2U A6C U34C C45U, the self-cleavage is reported as 0.01. In the case of G2U A16U G19U U20C G36C C37U C42G, the self-cleavage is reported as 0.02. Variant G2U A12U C13A G40U A41U has a self-cleavage of 0.03. Variant G2U C10A G30C C46U has a self-cleavage of 0. For G2C C10G U28C C42U U43A, the self-cleavage was 0. For G2C U9C G19C A24C, the self-cleavage was 0.01. For G2U C3A G7C A16U A26U U28G, the self-cleavage was 0.06. G2U C10A G40U C46G gave a self-cleavage of 0. Variant G2U C3A A14G G36A has a self-cleavage of 0.11. G2C C15U C42A C45U showed a self-cleavage of 0.16. For G2C U9A A24C A25U A39G G40U, the self-cleavage was 0.08. In the case of G2C G19A U28G C42U, the self-cleavage is reported as 0.32. For G2U A4U C15U G27U G29C U34C, the self-cleavage was 0.01. For G2U C8U G44U, the self-cleavage was 0.46. For G2U C10A G30U C31U, the self-cleavage was 0. G2U C15U C23U A24G G27A G40A gave a self-cleavage of 0.02. Variant G2C U38A C45A has a self-cleavage of 0.06. G2C C15G A41G C45A showed a self-cleavage of 0.01. G2U C3A C23G G36A showed a self-cleavage of 0.68. G2U C8U C10U U32C A41C showed a self-cleavage of 0.04. Variant G2C C8U G29C G40U has a self-cleavage of 0.07. With G2U A26G G33U G35C the self-cleavage was 0.01. In the case of G2U C10G A12U, the self-cleavage is reported as 0.02. With G2U C10G A12G the self-cleavage was 0.02. In the case of G2U C3G C31A, the self-cleavage is reported as 0.07. For G2C U9C C37U, the self-cleavage was 0.03. Variant G2U A16U U43A C46A has a self-cleavage of 0.01. Work on G2C C8G U20C C37G yielded a self-cleavage of 0.01. G2C G7U G40A gave a self-cleavage of 0.23. With G2U A6G C10A C18G the self-cleavage was 0. G2U C3A G22C G27C U28A G33U showed a self-cleavage of 0.13. G2U A16G G22C A24C C46U gave a self-cleavage of 0.03. Work on G2U A24U U38C yielded a self-cleavage of 0.02. For G2C G5C A6U G27A G30U C46U, the self-cleavage was 0.05. For G2U C8A G36A C42U, the self-cleavage was 0.06. For G2U C8A C10G G27C A41U, the self-cleavage was 0.01. In the case of G2C G5U U9A G33C, the self-cleavage is reported as 0.03. In the case of G2C G7C U28G G40U, the self-cleavage is reported as 0.15. With G2C G35C U38A the self-cleavage was 0.02. In the case of G2C U9G A16C U43A, the self-cleavage is reported as 0.03. With G2C G27A C42A the self-cleavage was 0.02. With G2C G27A C42G the self-cleavage was 0.2. Variant G2U A12G C23G has a self-cleavage of 0.01. G2C G27A G33C A39U C42A gave a self-cleavage of 0.01. In the case of G2U C13G U38C G44A, the self-cleavage is reported as 0.02. For G2U A25U G35U C42G G44A, the self-cleavage was 0.02. G2C G29C C31G A39U G40A gave a self-cleavage of 0.01. For G2U A26C C37U, the self-cleavage was 0.03. In the case of G2U C37U G40U, the self-cleavage is reported as 0.07. G2U C8U C37U G40A gave a self-cleavage of 0.01. G2U A4C A26G U34A C46A gave a self-cleavage of 0.02. Variant G2U A25U G40C G44U has a self-cleavage of 0.02. For G2U A6U G36U C45G, the self-cleavage was 0.02.
